# Reference: publication PMC4242493
# The list shows a part of the results. The list includes weakly bound sequences.
# Biological target: MaxL homodimer (UniProt P61244)
# Assay: universal protein-binding microarray (PBM)
# Conditions: PBS-based mixture, 10 nM His-tagged protein dimer, 2% milk, 200 ng/uL BSA, 50 ng/uL salmon testes DNA, 0.02% TX-100; detection with Alexa 488 anti-His …; high values mean tight binding; most listed sequences are background and not binding sites; double strand, one strand shown
# UniProt P61244, sequence (P61244 whole entry): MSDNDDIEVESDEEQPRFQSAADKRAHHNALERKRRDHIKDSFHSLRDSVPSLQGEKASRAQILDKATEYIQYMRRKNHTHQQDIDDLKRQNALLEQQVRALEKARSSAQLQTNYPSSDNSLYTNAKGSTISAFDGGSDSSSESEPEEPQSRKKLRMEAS
row,Sequence,binding signal (normalized occupancy)
1,ACCCTGGC,0.0697
2,CAATCACA,0.0818
3,GCTATGAC,0.071
4,AATGGGCT,0.0705
5,AACTCGCG,0.0749
6,ACAAGTCT,0.0786
7,ATAAAGAG,0.0777
8,AAACACGG,0.0741
9,CAGAGAGG,0.0696
10,CACTGCTG,0.0746
11,CAATGCCG,0.0728
12,ACCCTCTC,0.077
13,GATCGGAC,0.0691
14,ATAATGTC,0.0884
15,GGATTATA,0.079
16,CGAAGCAG,0.0758
17,AGAGCCCG,0.0656
18,CCGTTGTA,0.0764
19,AGTAGCTA,0.0715
20,CAGTACGG,0.0731
21,AGATCTAT,0.077
22,ATTAGGGC,0.0749
23,ATAGATCA,0.0776
24,ATGTTCAA,0.0769
25,ACATCCAT,0.0873

row,Sequence,binding signal (normalized occupancy)
1,ACGCATTG,0.0891
2,GATCATAC,0.079
3,CCTACGTA,0.0803
4,ATGTATAA,0.0887
5,GGGAACTA,0.0712
6,ACACTACC,0.0816
7,ATGTGGCC,0.0917
8,TCTCAGAA,0.0737
9,ACGAGCCC,0.0666
10,CCGATTTC,0.0698
11,TCACTTAA,0.078
12,ATTCGCAC,0.0748
13,ATATCACC,0.0854
14,ATCGATGG,0.0804
15,GAAGGAAC,0.0744
16,CATCTAGA,0.0769
17,CCAGCCAC,0.0768
18,GACACACA,0.0862
19,CAATCGAC,0.0743
20,CGAGCGAA,0.0703
21,ATTAGCTA,0.0721
22,AAGCACGT,0.102
23,ACTTATAA,0.0774
24,CAGCGCTA,0.07
25,ATTCTCCG,0.0714

row,Sequence,binding signal (normalized occupancy)
1,CCGTTTGC,0.0669
2,ATCGACAT,0.0817
3,CTCTGGCA,0.068
4,GTGATGCA,0.0849
5,TATTTCAA,0.0812
6,GTACATCA,0.0813
7,AGATAGTG,0.0756
8,TCACCGCA,0.0739
9,ATATGTAA,0.0818
10,GCAGATTA,0.0795
11,ATAGCTGG,0.0693
12,CCCGGTTA,0.0725
13,GTTTTAAA,0.073
14,AGGTATGC,0.0813
15,ACCATTTG,0.0777
16,ATGCTCAG,0.0787
17,CTTCTAAC,0.07
18,ATAACCTC,0.0862
19,GTCCCGAC,0.0732
20,CATCCACG,0.108
21,CTCCTTGC,0.0749
22,ATGGCACA,0.0786
23,AGTCGTAG,0.0702
24,CGCATCCC,0.0821
25,CGACTCCC,0.0754

row,Sequence,binding signal (normalized occupancy)
1,CGCACATA,0.0812
2,GAGAGTGC,0.0808
3,TAGGCCGA,0.0661
4,ACATTGGT,0.0773
5,AGACGCAC,0.0752
6,ATTGTCTA,0.0825
7,CGAAAAAA,0.0757
8,GGCTCAAA,0.0652
9,AGACTTAT,0.0756
10,AATAATGA,0.0809
11,ACTCATTA,0.0832
12,ATAAAATC,0.077
13,GTAATGGA,0.0779
14,GAATCGCA,0.0692
15,CACCGAAG,0.0697
16,CAATGCTA,0.074
17,ATGGGGGG,0.086
18,AAGTGTAC,0.0817
19,AGCTCGAC,0.0648
20,CTCCTAAG,0.0719
21,ACCTACGA,0.0696
22,ATTGACAA,0.0724
23,CAAGTGAG,0.0728
24,GCTTGGCC,0.0711
25,CGCGGACG,0.0684

row,Sequence,binding signal (normalized occupancy)
1,ACGAGGGG,0.0927
2,AGAAAAAA,0.0669
3,GTGTACCA,0.0797
4,AAAGCTAA,0.0691
5,TAGCCTAA,0.073
6,CACGGCCA,0.0765
7,CACAGATA,0.076
8,ACAGGATA,0.0758
9,GGAACTGA,0.0733
10,GACTGCGA,0.0684
11,TTATCGAA,0.0724
12,CGGGCCAC,0.0694
13,ATCTCCTG,0.0781
14,ATGTTAGC,0.0865
15,GTAACTAA,0.0701
16,GAACTGGC,0.0668
17,ACGTCGGA,0.0723
18,ATTATTTA,0.073
19,TATCCACA,0.0827
20,GAAAACAC,0.077
21,GATAGCGC,0.0768
22,CTCTAGTC,0.0712
23,CATCTTTA,0.0754
24,ATTGATCC,0.0795
25,GCCGCTAC,0.0682

row,Sequence,binding signal (normalized occupancy)
1,AAGGCAGT,0.0705
2,ATACAAGG,0.0755
3,CTACATGA,0.0856
4,AGGCACAT,0.098
5,CCGAGCCC,0.0666
6,AGTGTGAT,0.0839
7,AAACAGAC,0.0744
8,CGACCTGC,0.0697
9,ATGCTCCA,0.0829
10,AGGGATCC,0.067
11,ATTTGTGC,0.0777
12,ATACATGC,0.104
13,AGCAACAC,0.0752
14,CCCGACCG,0.0696
15,ACACGTCA,0.0865
16,CAACTGCC,0.067
17,AACCGAAC,0.0694
18,GTACGCCA,0.077
19,ACGGTGCG,0.0738
20,GACGGACA,0.0762
21,CCCGCGAA,0.0716
22,AGGCAAGC,0.0713
23,CCAGCTGG,0.0717
24,ATTCTAAA,0.0725
25,AGGTAAGG,0.0722

row,Sequence,binding signal (normalized occupancy)
1,AGTCGCAC,0.0809
2,GATTATCA,0.0803
3,CGGGCTTC,0.064
4,CGGGGAAC,0.0801
5,ATTCCCGA,0.0756
6,GGGCCCGA,0.0708
7,ATAAATTA,0.0802
8,GACGCCTC,0.0726
9,GACACACC,0.0876
10,AGCAGAAG,0.0755
11,AGCCATGC,0.0996
12,TGCCAGCA,0.0771
13,GCTTTACC,0.0768
14,CGGCCGTA,0.0679
15,ACAGAGTG,0.0709
16,CATCATGG,0.0895
17,TCAAAGAA,0.0762
18,GGTCTTAC,0.0751
19,AAACACGA,0.0848
20,CAGCTCGC,0.0692
21,TACTCGCA,0.0752
22,AGCATCAA,0.0728
23,AGCTTAGC,0.0725
24,CCAGATAA,0.0789
25,ACTATCAT,0.085

row,Sequence,binding signal (normalized occupancy)
1,AGCATCAG,0.0766
2,TATAAGAA,0.0821
3,AGACTGTA,0.0748
4,GAGGGAAC,0.0739
5,ATGCCCCA,0.0786
6,CTGTAGGC,0.0724
7,ATGGGAGA,0.0839
8,AGTCGAAC,0.0714
9,ACAAAAGA,0.0779
10,CGATCTGA,0.0701
11,GGGAACAA,0.0766
12,CGTTCACA,0.0787
13,GAGCAGCA,0.0762
14,CTACACAC,0.093
15,CCTCGACC,0.0736
16,TAAGTCGA,0.0739
17,AGTTTTAT,0.0775
18,GTCACAGA,0.0741
19,ATCGGCCG,0.0669
20,AATTGGGA,0.0784
21,ATGGCCCG,0.0714
22,CCCTTGAA,0.0754
23,AGCGTCTG,0.0699
24,CTTAAGTC,0.0714
25,CTGATGGC,0.0797

row,Sequence,binding signal (normalized occupancy)
1,CTGGCGGC,0.0663
2,AAGAACTT,0.0721
3,ATTGATGA,0.0809
4,CGTGAAAC,0.0779
5,GGAGAGGA,0.0702
6,ACCGACGT,0.0675
7,CAAGCCGG,0.0671
8,ACGCCCGG,0.0705
9,AAAACGTA,0.0744
10,AGTAACAG,0.071
11,CCAGTGCC,0.0713
12,AGTTCGCC,0.0678
13,GTATTAAA,0.0765
14,CTGCAGTA,0.0706
15,CCGTGTAA,0.0797
16,AGACTTGA,0.072
17,CGAAGTTC,0.0686
18,GAGGGAGC,0.0727
19,ATCACAAA,0.0814
20,AGGTTATA,0.0794
21,AACAATGA,0.0819
22,ACGGACGT,0.0685
23,ACTCCGGA,0.0722
24,CGGTGACG,0.0751
25,AGGTCGGC,0.0678

row,Sequence,binding signal (normalized occupancy)
1,GACATTAA,0.0815
2,CGGCGCCG,0.0686
3,CAAAGACG,0.068
4,ATAGCCGC,0.0716
5,AACCCCCG,0.077
6,ATCTTGAC,0.0784
7,AGAACGTA,0.0742
8,AGTGTTCC,0.0695
9,GCTTTCAC,0.071
10,CATTTGGA,0.0765
11,ACAACCTG,0.0804
12,AAAGAGCG,0.0678
13,GACCGTGA,0.0738
14,CGCGTGAG,0.109
15,ACTTCGTG,0.0718
16,TAGCTTCA,0.0759
17,TTACAAAA,0.0724
18,CAACGTCG,0.0706
19,CAGATTTA,0.0742
20,AGTTGTCG,0.0737
21,ACACTCGG,0.0736
22,ATAAGACG,0.0798
23,CGCGACAG,0.0727
24,CGACTGTA,0.0699
25,CCAGATTC,0.071

row,Sequence,binding signal (normalized occupancy)
1,ACACTCGA,0.0734
2,ACGGCCAC,0.076
3,ACCACGTA,0.0816
4,AAGCACCG,0.0685
5,CGTTGATC,0.077
6,CAACAGCG,0.0696
7,CATACTAA,0.0776
8,AAAATCGT,0.0814
9,GCCATGTA,0.0843
10,AATGCACG,0.0974
11,ATTCAACA,0.0822
12,CAGGCTGA,0.0746
13,GGCCGGAC,0.0713
14,GCTGTGTA,0.0781
15,ACCTGATG,0.0825
16,AGTAATTA,0.0718
17,CATTCTAG,0.0749
18,AAAGGAGA,0.0761
19,TAGTGTCA,0.0767
20,ATTAACGG,0.0709
21,CACTGCGG,0.074
22,ACCACTCC,0.0804
23,CGGAATCC,0.0744
24,ATAGAAAG,0.0831
25,CAGTACAA,0.0781

row,Sequence,binding signal (normalized occupancy)
1,CGTGTGTC,0.0936
2,GGATAAAC,0.0768
3,AGCAGATC,0.077
4,CGAAATCC,0.0763
5,AGGAAGAA,0.0726
6,ATTAACGC,0.0763
7,AGTATGAC,0.0866
8,GTCGTAAA,0.0749
9,GTCGCGAA,0.0698
10,AAAGCGGC,0.0666
11,CCTCCGCA,0.0736
12,CTCTGGGA,0.0701
13,CGCATACC,0.0845
14,CCAAGCAC,0.082
15,CGGGAAGC,0.0681
16,CCGAAACA,0.0779
17,ACCTCGAT,0.072
18,AGTGTAAA,0.0803
19,CTCTGCAA,0.0718
20,AGCCCATA,0.0829
21,CCTAAGAA,0.0797
22,ACCATCCC,0.084
23,GGCGTAAC,0.0704
24,ACACGTAC,0.0858
25,ACCAGTCC,0.0702

row,Sequence,binding signal (normalized occupancy)
1,CAGCGGTA,0.0751
2,AAGTCGGT,0.0677
3,CGGAGTGC,0.0772
4,ACCCGTGA,0.0833
5,CTATAAAG,0.0781
6,ATCGGTTC,0.0697
7,ATGTGTCA,0.101
8,ATTATCTC,0.0839
9,CTCCAACA,0.0764
10,TGGCCCCA,0.0779
11,GCCGGGCA,0.0681
12,ACACGACG,0.0873
13,CCGCTCAG,0.0713
14,GCGAACGA,0.0714
15,ATTGGTCG,0.0709
16,AGGTGAGA,0.0787
17,GACTCTTA,0.0766
18,CATAACGC,0.0802
19,CGATATCC,0.0859
20,CGCCTTGC,0.0725
21,GGTACTTA,0.0774
22,CCCAAACG,0.073
23,CACCGTTC,0.0774
24,ACGATTTC,0.0741
25,GTCGTGGA,0.0856

row,Sequence,binding signal (normalized occupancy)
1,AATTTACT,0.0773
2,CAATTCCG,0.0702
3,CCAGTGTC,0.0756
4,ACTGGCGA,0.0719
5,CGGTCTCA,0.0736
6,ACCACTAG,0.0806
7,CAGCTCCA,0.0792
8,CGCAGACC,0.069
9,CCTTGAGC,0.0693
10,AAGGCGGT,0.0724
11,AGTCGTTC,0.0702
12,GCACTGAC,0.0739
13,GTTACTTA,0.0751
14,ACGTACAT,0.0839
15,ATAAATGG,0.0761
16,ATTCTCGC,0.0783
17,CGAGAGTC,0.0693
18,AAGGAATC,0.0703
19,AGGTGAGC,0.0783
